According to PubChem BioAssay AID588334 (Broad Institute, 2011):
Screen size: about 300,000 compounds; about 2,300 (0.77%) were called active. Inconclusive results, whose numbers are uncertain, are shown with a selection of clear calls.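 How the source made its calls: active means mean activation of at least 80% with every replicate also reaching 80%; inconclusive means mean reaches 80% but some replicate falls short; inactive means the rest.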

Assay: MITF-driven TRPM1 luciferase induction in melanoma cells – cell-based, SK-MEL-5, single point, primary screen (AID 588334);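 further: 0% = neutral control wells and 100% = parthenolide positive control wells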
Conditions: SK-MEL-5 TRPM1-promoter luciferase, 24 h; at 12.5 µM; stronger effect = higher value; % of positive control, neutral wells = 0

activation, inactive:
O=C(Oc1ccc(/C=N/O)cc1)c1ccccc1Cl 44.2%
CCOc1ccc2nc(NC(=O)C34CC5CC(CC(NC(C)=O)(C5)C3)C4)sc2c1 66%
CCN(C(=O)c1cc2c(=O)[nH]c3ccc(C)cc3c2s1)c1ccccc1F 3.73%
Cc1ccc(S(=O)(=O)Nc2ccccc2CNc2cccc(C)n2)cc1 2.75%
Cc1c(/C=C/C(=O)c2ccc(O)cc2)cnn1C 12.8%

activation, active:
O=C(CSCc1ccccc1)N1CCc2ccccc21 95%
CC(Oc1ccc(Cl)cc1Cl)c1nc(-c2ccccn2)no1 (stereo not drawn) 131%
Cc1cccc(NC(=O)c2ccc3c(c2)OCCO3)c1C 113%
O=C(NCCO)c1ccc2c3n(nc2c1)-c1ccc(Cl)cc1CO3 84.3%
N/C(=N\OC(=O)C12CC3CC(CC(C3)C1)C2)c1ccccn1 97.8%

activation, inconclusive:
CC(=O)/C=C(\C)Nc1ccc(-c2cnc(-c3ccccc3)o2)cc1 98.6%
Cc1ccc(OCCSc2nc(N)cc(N)n2)cc1 81.7%
COc1ccc(-c2nnc(SC(C)C(=O)Nc3ccc4c(c3)OCCO4)o2)cc1 (stereo not drawn) 80.4%
COc1ccc(NC(=O)c2ccc3ncsc3c2)cc1 81.7%
O=C(Nc1nccs1)c1ccc(Br)cc1 80.1%
CCc1ccc(NC(=O)c2ccc3nc(N)sc3c2)cc1 83.2%
O=C(Nc1ccc(Cl)cc1)NC1CCCCC1 83.2%
CCN(CC)C(=O)CCc1nnc(Cc2cccc(C(F)(F)F)c2)o1 83.9%
Cc1ccc(Nc2nc(N)nc(CSc3ncccn3)n2)cc1 83.3%
C/C(=N\O)c1ccc(N2C(=O)C3CC=C(Cl)CC3C2=O)cc1 (stereo not drawn) 81.5%
Cc1ccc(-c2nnc(SCC(=O)N3CCCC3)o2)cc1 83.2%
CCc1nnc(NC(=O)/C=C/c2cccs2)s1 83.8%
C/C(=N\Nc1ccc([N+](=O)[O-])cc1)c1ccco1 83.6%
O=C(c1ccc(F)cc1)c1cc2ccccc2o1 85%
CC1CC1C(=O)OCC(=O)Nc1ccc(N=Nc2ccccc2)cc1 (stereo not drawn) 80.9%
CCOc1ccc(N2C(=O)/C(=C/c3ccccc3)N=C2SC)cc1 86.7%
COc1ccccc1Nc1ccc(Nc2ccccc2OC)nn1 90.1%
O=C(CSc1nc2ccccc2o1)c1ccccc1 82%
